{
  "source": "paper PMC4336329",
  "about": "(PLoS ONE, 2015)",
  "note": "Screen size: about 310,000 compounds; about 14,000 (4.5%) showed an effect of 50% or more. The effect is printed as a negative number. This is one part of the list.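 Further: peak tail current of the secondary pulse compared with the same well before compound.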",
  "data": [
    {"target": "human ether-à-go-go-related gene (hERG) potassium channel (human, UniProt Q12809)", "sequence (Q12809 whole entry, looked up)": "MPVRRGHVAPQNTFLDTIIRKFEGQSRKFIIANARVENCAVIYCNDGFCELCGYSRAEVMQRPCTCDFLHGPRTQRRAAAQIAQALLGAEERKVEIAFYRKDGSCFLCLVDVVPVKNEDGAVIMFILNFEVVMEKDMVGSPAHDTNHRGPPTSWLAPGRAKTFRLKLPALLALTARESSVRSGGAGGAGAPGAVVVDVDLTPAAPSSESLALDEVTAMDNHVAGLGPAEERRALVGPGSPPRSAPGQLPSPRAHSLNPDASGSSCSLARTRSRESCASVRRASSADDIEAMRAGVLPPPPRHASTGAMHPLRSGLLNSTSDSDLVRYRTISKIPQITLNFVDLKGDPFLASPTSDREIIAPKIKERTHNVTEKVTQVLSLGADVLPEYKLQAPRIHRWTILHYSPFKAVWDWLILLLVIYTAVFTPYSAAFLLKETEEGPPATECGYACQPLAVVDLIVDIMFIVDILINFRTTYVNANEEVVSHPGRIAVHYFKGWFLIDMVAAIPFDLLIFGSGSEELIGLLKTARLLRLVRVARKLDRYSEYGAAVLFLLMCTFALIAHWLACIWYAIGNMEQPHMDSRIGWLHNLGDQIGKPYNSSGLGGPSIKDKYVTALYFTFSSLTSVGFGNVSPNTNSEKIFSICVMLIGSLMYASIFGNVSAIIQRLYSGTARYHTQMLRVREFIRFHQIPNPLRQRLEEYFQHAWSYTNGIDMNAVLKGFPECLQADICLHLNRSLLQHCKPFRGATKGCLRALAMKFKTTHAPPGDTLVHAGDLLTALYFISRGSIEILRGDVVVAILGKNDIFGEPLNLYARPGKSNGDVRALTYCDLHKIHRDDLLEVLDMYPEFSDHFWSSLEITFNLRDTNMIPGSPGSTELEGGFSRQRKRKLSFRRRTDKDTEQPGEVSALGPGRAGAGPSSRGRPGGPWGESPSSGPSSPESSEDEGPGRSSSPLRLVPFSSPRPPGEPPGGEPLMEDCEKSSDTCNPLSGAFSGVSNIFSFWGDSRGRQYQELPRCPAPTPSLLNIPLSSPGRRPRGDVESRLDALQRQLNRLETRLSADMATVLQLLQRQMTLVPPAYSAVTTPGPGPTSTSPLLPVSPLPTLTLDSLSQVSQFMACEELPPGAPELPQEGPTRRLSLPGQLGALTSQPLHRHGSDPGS", "assay": "primary screen, population patch clamp on CHO cells stably expressing hERG", "units": {"hERG current change (%, negative = inhibition) at 10uM": "%"}, "values": [
      {"smiles": "CCN(CC)C(=O)c1cc2c(=O)c3cc(F)ccc3oc2nc1C", "hERG current change (%, negative = inhibition) at 10uM": -10.8},
      {"smiles": "Nc1nonc1C(=O)NCCN=Cc1cc(Cc2ccccc2)cc(Br)c1O", "hERG current change (%, negative = inhibition) at 10uM": -6.36},
      {"smiles": "CC(=O)Nc1ccccc1NC(=O)C/C(C)=N/NC(=O)c1ccc([N+](=O)[O-])c(Cl)c1", "hERG current change (%, negative = inhibition) at 10uM": 25.1},
      {"smiles": "O=C(Nc1cccc(F)c1)c1ccc(Br)o1", "hERG current change (%, negative = inhibition) at 10uM": -10.8},
      {"smiles": "COc1ccc(C(=O)N/C(=C\\c2ccco2)C(=O)OCc2ccco2)cc1", "hERG current change (%, negative = inhibition) at 10uM": -22.2},
      {"smiles": "Cc1ccccc1C1=N/C(=C/c2cccs2)C(=O)O1", "hERG current change (%, negative = inhibition) at 10uM": 18.6},
      {"smiles": "COc1ccccc1Cc1noc(-c2cc(Cl)ccc2OC)n1", "hERG current change (%, negative = inhibition) at 10uM": 7.34},
      {"smiles": "CCN1CCN(C(C(=O)NC2CCCC2)c2cc3c(cc2[N+](=O)[O-])OCO3)CC1", "note": "(stereo not shown)", "hERG current change (%, negative = inhibition) at 10uM": -1.51},
      {"smiles": "O=C(CCC(=O)Nc1ccccc1)NNS(=O)(=O)c1ccc(Cl)cc1", "hERG current change (%, negative = inhibition) at 10uM": 6.88},
      {"smiles": "Cn1c(/N=C/c2c[nH]c3ccccc23)nc2ccccc21", "hERG current change (%, negative = inhibition) at 10uM": 14.5},
      {"smiles": "COc1cccc(/C=C/C(=C2/C(=O)N(c3ccccc3)N=C2C)c2ccc(C)cc2)c1OC", "hERG current change (%, negative = inhibition) at 10uM": 5.82},
      {"smiles": "Cc1ccc(/C=N/Nc2nc(C(C)(C)C)cs2)o1.Cl", "hERG current change (%, negative = inhibition) at 10uM": -22.5},
      {"smiles": "O=C1CSCC(=O)N1Cc1ccc(Cl)c(Cl)c1", "hERG current change (%, negative = inhibition) at 10uM": -7.26},
      {"smiles": "CC(C)(C)c1ccc(-n2ncc3c2CCCC3NC(=O)CN2CCCC2=O)cc1", "note": "(stereo not shown)", "hERG current change (%, negative = inhibition) at 10uM": -6.16},
      {"smiles": "O=C1NCCCCC1NS(=O)(=O)c1cccc2ccccc12", "note": "(stereo not shown)", "hERG current change (%, negative = inhibition) at 10uM": 6.62},
      {"smiles": "O=C(/C=C/c1cccs1)Nc1ccc(Br)cn1", "hERG current change (%, negative = inhibition) at 10uM": 14.7},
      {"smiles": "N#Cc1ccc(CSc2nc(N)cc(=O)[nH]2)cc1", "hERG current change (%, negative = inhibition) at 10uM": -35.6},
      {"smiles": "CC1CCCC(N2CCN(C(=O)c3ccc(F)cc3)CC2)C1", "note": "(stereo not shown)", "hERG current change (%, negative = inhibition) at 10uM": -44.1},
      {"smiles": "CCN(CC)C1CCN(c2nc3nonc3nc2NCCOC)C1", "note": "(stereo not shown)", "hERG current change (%, negative = inhibition) at 10uM": -3.27},
      {"smiles": "CCC(=O)N(CCc1ccccc1C)Cc1cc2ccc(C)cc2[nH]c1=O", "hERG current change (%, negative = inhibition) at 10uM": 9.02},
      {"smiles": "Cc1ccc(NC(=O)N(CCCN2CCOCC2)Cc2cccnc2)cc1C", "hERG current change (%, negative = inhibition) at 10uM": -10.8},
      {"smiles": "C/C(=N\\NC(=O)c1ccccc1O)c1cccs1", "hERG current change (%, negative = inhibition) at 10uM": 1.88},
      {"smiles": "CSCCC(NC(=O)c1ccco1)C(=O)Nc1ccncc1", "note": "(stereo not shown)", "hERG current change (%, negative = inhibition) at 10uM": 5.38},
      {"smiles": "O=C(COc1ccccc1-c1ccccc1)NCCN1C(=O)S/C(=C\\c2cccnc2)C1=O", "hERG current change (%, negative = inhibition) at 10uM": -13.5},
      {"smiles": "O=C(Nc1ccc(Cl)cc1)N1CCSC1=NCc1ccccc1", "hERG current change (%, negative = inhibition) at 10uM": 14.3}
    ]}
  ]
}
